Results from PubChem BioAssay AID488969 (Vanderbilt High Throughput Screening Facility, 2010).
Whole data set: some 110,000 compounds, median “z-score” near -0.1, cut for the highest 2% near 2. Some of the results follow.

Target: Metabotropic glutamate receptor 8 (Rattus norvegicus) (UniProt P70579)
Assay: mGluR8 Gi/Go-coupled signaling modulation – cell-based, rat, thallium flux, HTS, primary screen (AID 488969)
Conditions: HEK293 rat mGluR8, GIRK (G protein-gated inwardly rectifying potassium channel) thallium flux, FluoZin2; at 10 µM; stronger effect = higher value; submaximal glutamate (EC20) added with thallium

UniProt P70579, sequence (P70579 whole entry, looked up): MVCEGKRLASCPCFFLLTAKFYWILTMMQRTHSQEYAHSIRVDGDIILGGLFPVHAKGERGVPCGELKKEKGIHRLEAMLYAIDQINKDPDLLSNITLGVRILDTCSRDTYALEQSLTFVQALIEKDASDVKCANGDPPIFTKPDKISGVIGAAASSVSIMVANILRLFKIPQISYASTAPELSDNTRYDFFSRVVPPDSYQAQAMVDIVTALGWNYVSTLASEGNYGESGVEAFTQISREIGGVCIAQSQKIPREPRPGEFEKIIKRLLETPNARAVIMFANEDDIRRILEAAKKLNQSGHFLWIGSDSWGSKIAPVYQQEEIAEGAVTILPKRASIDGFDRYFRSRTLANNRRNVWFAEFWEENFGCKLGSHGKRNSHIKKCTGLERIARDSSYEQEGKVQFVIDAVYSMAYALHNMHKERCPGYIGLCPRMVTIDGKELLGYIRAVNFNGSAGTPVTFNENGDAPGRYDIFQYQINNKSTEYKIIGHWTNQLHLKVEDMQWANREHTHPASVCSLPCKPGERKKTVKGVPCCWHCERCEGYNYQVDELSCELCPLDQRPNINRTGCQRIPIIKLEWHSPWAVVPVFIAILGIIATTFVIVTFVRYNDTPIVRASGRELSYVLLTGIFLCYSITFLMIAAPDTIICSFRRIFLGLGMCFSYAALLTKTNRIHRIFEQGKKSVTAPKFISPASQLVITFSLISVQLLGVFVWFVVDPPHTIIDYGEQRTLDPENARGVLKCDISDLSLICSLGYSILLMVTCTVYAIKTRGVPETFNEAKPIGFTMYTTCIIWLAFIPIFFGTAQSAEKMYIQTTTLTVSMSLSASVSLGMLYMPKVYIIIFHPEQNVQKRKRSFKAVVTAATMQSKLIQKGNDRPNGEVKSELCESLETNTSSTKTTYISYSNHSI

SMILES	z-score
COc1cc(NS(=O)(=O)c2ccc(NC(=S)NC(=O)c3sc4ccccc4c3Cl)cc2)nc(OC)n1	-1.14
